# Experimental data from the supplement of paper PMC10037445.
# In all, about 2,900 compounds were measured (“IRF Lucia reporter activity, fold change vs agonist alone”: median about 0.9, highest 2% from about 2.8 on). Some of the results follow.
# Columns and labels:
# RAW-Dual [1] = assay: IRF Lucia reporter activity, fold change vs agonist alone; higher = enhanced IRF activity; conditions: cytotoxicity flag (confluency mask): not cytotoxic, agonist: MPLA (TLR4) […]
# Summary of the method: (§1)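 Supernatant from RAW-Dual macrophages was read after 20 hours for IRF by QuantiLuc luminescence and for NF-κB by QuantiBlue absorbance at 620 nm. The cells (50,000 cells/well in DMEM, 384-well plates, 37 °C, 5% CO2) had received 50 nL of library stock by pin tool and, 1 h later, a PRR agonist. Reporter activity is expressed relative to agonist-alone wells as fold change, and wells were flagged cytotoxic if IncuCyte confluency was under 70% of agonist controls in both mask sets.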
# RAW-Dual [2] = assay: IRF Lucia reporter activity, fold change vs agonist alone; cytotoxicity flag (confluency mask): not cytotoxic; higher = enhanced IRF activity
# Summary of the method: as §1
# RAW-Dual [3] = assay: IRF Lucia reporter activity, fold change vs agonist alone; cytotoxicity flag (confluency mask): cytotoxic (confluency <70% of control); higher = enhanced IRF activity
# Summary of the method: as §1
# [4] = library stock concentration (final ~1000-fold dilution): 10 mM
# [5] = agonist: 3'3'-cGAMP (STING) 10 ug/mL
smiles,measurement,setting,value
Fc1cc(F)c2c(c1)C1C=CCC1C(c1cccnc1)N2 (stereo unspecified),IRF Lucia reporter activity,RAW-Dual [1]; [4],0.0979
Fc1cc(F)c2c(c1)C1C=CCC1C(c1cccnc1)N2 (stereo unspecified) (library stock concentration (final ~1000-fold dilution): 10 mM),IRF Lucia reporter activity,RAW-Dual [2]; [5],0.0147
same,IRF Lucia reporter activity,RAW-Dual [2]; agonist: LPS (TLR4) 0.1 ug/mL,0.083
O=C(O)CCCc1ccc(N(CCCl)CCCl)cc1 (library stock concentration (final ~1000-fold dilution): 10 mM),IRF Lucia reporter activity,RAW-Dual [2]; [5],0.892
same,IRF Lucia reporter activity,RAW-Dual [2]; agonist: LPS (TLR4) 0.1 ug/mL,1.2
O=C(O)CCCc1ccc(N(CCCl)CCCl)cc1,IRF Lucia reporter activity,RAW-Dual [1]; [4],0.988
CN(CCC(N)CC(=O)NC1C=CC(n2ccc(N)nc2=O)OC1C(=O)O)C(=N)N.Cl (stereo unspecified),IRF Lucia reporter activity,RAW-Dual [1]; library stock concentration (final ~1000-fold dilution): 10 mM water,1.1
CN(CCC(N)CC(=O)NC1C=CC(n2ccc(N)nc2=O)OC1C(=O)O)C(=N)N.Cl (stereo unspecified) (library stock concentration (final ~1000-fold dilution): 10 mM water),IRF Lucia reporter activity,RAW-Dual [2]; [5],0.578
same,IRF Lucia reporter activity,RAW-Dual [2]; agonist: LPS (TLR4) 0.1 ug/mL,0.594
CC12CCC3C(CC=C4CC(O)CCC43C)C1CCC2=O (stereo unspecified),IRF Lucia reporter activity,RAW-Dual [1]; [4],0.996
CC12CCC3C(CC=C4CC(O)CCC43C)C1CCC2=O (stereo unspecified) (library stock concentration (final ~1000-fold dilution): 10 mM),IRF Lucia reporter activity,RAW-Dual [2]; [5],1.03
same,IRF Lucia reporter activity,RAW-Dual [2]; agonist: LPS (TLR4) 0.1 ug/mL,0.8
COC(=O)CC(O)(CCC(C)(C)O)C(=O)OC1C(OC)=CC23CCCN2CCc2cc4c(cc2C13)OCO4 (stereo unspecified) (library stock concentration (final ~1000-fold dilution): 10 mM),IRF Lucia reporter activity,RAW-Dual [3]; [5],0.0132
same,IRF Lucia reporter activity,RAW-Dual [3]; agonist: LPS (TLR4) 0.1 ug/mL,0.0156
N#C/C(=C\c1ccc(O)cc1)C(=O)O (library stock concentration (final ~1000-fold dilution): 10 mM),IRF Lucia reporter activity,RAW-Dual [2]; [5],0.896
same,IRF Lucia reporter activity,RAW-Dual [2]; agonist: LPS (TLR4) 0.1 ug/mL,1.28
O=C(CBr)c1ccc(O)cc1,IRF Lucia reporter activity,RAW-Dual [1]; [4],0.678
O=C(CBr)c1ccc(O)cc1 (library stock concentration (final ~1000-fold dilution): 10 mM),IRF Lucia reporter activity,RAW-Dual [2]; [5],0.723
same,IRF Lucia reporter activity,RAW-Dual [2]; agonist: LPS (TLR4) 0.1 ug/mL,0.875
CCN(C)C(=O)Oc1cccc(C(C)N(C)C)c1 (stereo unspecified),IRF Lucia reporter activity,RAW-Dual [1]; [4],1.08
CCN(C)C(=O)Oc1cccc(C(C)N(C)C)c1 (stereo unspecified) (library stock concentration (final ~1000-fold dilution): 10 mM),IRF Lucia reporter activity,RAW-Dual [2]; [5],1.03
same,IRF Lucia reporter activity,RAW-Dual [2]; agonist: LPS (TLR4) 0.1 ug/mL,1.33
O=C1C=CCC2C3CCCN4CCCC(CN12)C34 (stereo unspecified) (library stock concentration (final ~1000-fold dilution): 10 mM),IRF Lucia reporter activity,RAW-Dual [2]; [5],1.02
same,IRF Lucia reporter activity,RAW-Dual [2]; agonist: LPS (TLR4) 0.1 ug/mL,0.943
O=C1C=CCC2C3CCCN4CCCC(CN12)C34 (stereo unspecified),IRF Lucia reporter activity,RAW-Dual [1]; [4],1
CC1OC(OC2CC(O)C3(CO)C4C(O)CC5(C)C(C6=CC(=O)OC6)CCC5(O)C4CCC3(O)C2)C(O)C(O)C1O.O.O.O.O.O.O.O.O (stereo unspecified),IRF Lucia reporter activity,RAW-Dual [1]; [4],1.06
CC1OC(OC2CC(O)C3(CO)C4C(O)CC5(C)C(C6=CC(=O)OC6)CCC5(O)C4CCC3(O)C2)C(O)C(O)C1O.O.O.O.O.O.O.O.O (stereo unspecified) (library stock concentration (final ~1000-fold dilution): 10 mM),IRF Lucia reporter activity,RAW-Dual [2]; [5],1.07
same,IRF Lucia reporter activity,RAW-Dual [2]; agonist: LPS (TLR4) 0.1 ug/mL,1.18
COC(=O)Nc1nc2ccccc2[nH]1,IRF Lucia reporter activity,RAW-Dual [1]; [4],1.06
COC(=O)Nc1nc2ccccc2[nH]1 (library stock concentration (final ~1000-fold dilution): 10 mM),IRF Lucia reporter activity,RAW-Dual [2]; [5],1.14
same,IRF Lucia reporter activity,RAW-Dual [2]; agonist: LPS (TLR4) 0.1 ug/mL,1.04
CC(C)OC(=O)C(C)NP(=O)(COC(C)Cn1cnc2c(N)ncnc21)Oc1ccccc1 (stereo unspecified) (library stock concentration (final ~1000-fold dilution): 10 mM),IRF Lucia reporter activity,RAW-Dual [2]; [5],1.11
same,IRF Lucia reporter activity,RAW-Dual [2]; agonist: LPS (TLR4) 0.1 ug/mL,1.34
COc1cc(C(=O)OC2C3C=COC(OC4OC(CO)C(O)C(O)C4O)C3C3(CO)OC23)ccc1O (stereo unspecified) (library stock concentration (final ~1000-fold dilution): 10 mM),IRF Lucia reporter activity,RAW-Dual [2]; [5],0.947
same,IRF Lucia reporter activity,RAW-Dual [2]; agonist: LPS (TLR4) 0.1 ug/mL,1.07
C[N+](C)(C)CCCCCCCCCC[N+](C)(C)C (library stock concentration (final ~1000-fold dilution): 10 mM),IRF Lucia reporter activity,RAW-Dual [2]; [5],1.06
same,IRF Lucia reporter activity,RAW-Dual [2]; agonist: LPS (TLR4) 0.1 ug/mL,1.31
C[N+](C)(C)CCCCCCCCCC[N+](C)(C)C,IRF Lucia reporter activity,RAW-Dual [1]; [4],1.13
O=C(O)CNC(=O)c1c(O)c2ccccc2n(Cc2ccccc2)c1=O,IRF Lucia reporter activity,RAW-Dual [1]; [4],1.02
O=C(O)CNC(=O)c1c(O)c2ccccc2n(Cc2ccccc2)c1=O (library stock concentration (final ~1000-fold dilution): 10 mM),IRF Lucia reporter activity,RAW-Dual [2]; [5],1.11
same,IRF Lucia reporter activity,RAW-Dual [2]; agonist: LPS (TLR4) 0.1 ug/mL,0.841
